According to patent US20050142106A1 (MIT, published 2005):

Target: T1, IL-2Rβ on YT-2C2 cells (human, UniProt P14784 27-551)
T1 construct: whole, on cells; YT-2C2 cells express about 20,000 IL-2Rβγ, so IL-2Rγ is also present; also called p75
T1 sequence (looked up): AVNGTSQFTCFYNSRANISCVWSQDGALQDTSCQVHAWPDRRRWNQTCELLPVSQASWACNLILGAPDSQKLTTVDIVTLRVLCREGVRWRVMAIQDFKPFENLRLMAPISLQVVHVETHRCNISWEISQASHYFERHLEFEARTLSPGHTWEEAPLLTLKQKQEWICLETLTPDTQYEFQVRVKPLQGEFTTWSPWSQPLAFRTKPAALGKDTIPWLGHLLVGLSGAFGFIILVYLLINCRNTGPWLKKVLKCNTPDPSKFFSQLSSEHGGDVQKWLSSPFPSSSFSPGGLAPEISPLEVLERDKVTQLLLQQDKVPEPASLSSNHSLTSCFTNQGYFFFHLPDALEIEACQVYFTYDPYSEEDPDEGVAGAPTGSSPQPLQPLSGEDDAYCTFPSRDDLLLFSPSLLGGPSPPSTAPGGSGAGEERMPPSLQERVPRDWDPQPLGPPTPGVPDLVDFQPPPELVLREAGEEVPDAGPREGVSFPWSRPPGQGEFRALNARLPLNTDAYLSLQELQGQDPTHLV
Test: flow cytometry on YT-2C2 cells, on ice, anti-FLAG detection, global fit

B1: IL-2 mutant C1 (I128T) (ligand, not shown: small tags and cut ends)
chain: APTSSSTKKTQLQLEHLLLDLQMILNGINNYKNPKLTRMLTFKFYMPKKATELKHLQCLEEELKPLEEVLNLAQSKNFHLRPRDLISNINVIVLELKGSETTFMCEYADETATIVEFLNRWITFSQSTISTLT
notes: Soluble form
Kd: 132 nM
